Source: PubChem BioAssay AID686970 (National Center for Advancing Translational Sciences (NCATS), 2013)
The whole screen tested about 360,000 compounds, of which about 6,000 (1.7%) were called active. The shares of active, inactive and inconclusive entries below differ from those in the screen. Calls come from the whole dose curve; as a rule, active = well fitted cell-killing curve with a large enough effect; inconclusive = small, poorly fitted or top-dose-only effect, or effect the other way; inactive = flat fitted curve, though single readings scatter. No potency is given beside an inconclusive call; the fits are too rough.

Assay: qHTS for induction of synthetic lethality in tumor cells producing 2HG: qHTS for the HT-1080-NT fibrosarcoma cell line;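 note: NT is the 2HG producing partner of a matched IDH1 knockdown line; nearly all actives have a fitted effect of over 55% in size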;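 for activity, negative = less viability: 0% = DMSO-treated cells and -100% = media-only wells without cells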
Conditions: HT-1080-NT fibrosarcoma viability, CellTiter-Glo ATP luminescence, 48 h; activity, negative = less viability: at 46.1 µM (top of the series) unless noted
In short: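 Toxicity toward the 2HG-producing NT line was scored as %Activity, normalised to DMSO and no-cell wells, from CellTiter-Glo luminescence after 48 hours' treatment.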
Potency is the fitted concentration of half-maximal effect; tags give direction and shape of the fitted curve.

| Compound | Potency | activity, negative = less viability |
| --- | --- | --- |
| CCCC(=O)Nc1ccc(NC(=S)NC(=O)c2ccccc2[N+](=O)[O-])cc1 | inconclusive [cytotoxic, single point] |  |
| COc1ccc([C@H]2/C=C\CN(C(=O)c3ccc(C)cc3)[C@@H](C)C(=O)N2Cc2ccc(F)cc2)cc1 | inconclusive [cytotoxic, single point] |  |
| COC(=O)Cc1[nH]n(-c2nc3ccccc3s2)c(=O)c1C(C)=Nc1ccc(Cl)cc1 | inconclusive [cytotoxic, single point] |  |
| COc1cc(OC)c(-c2nn3c(C4CCCCC4)nnc3s2)cc1OC | inactive |  |
| Cc1[nH]c2ccc(C(=O)NCCN3CCCCCC3)cc2c1C | inactive |  |
| CCNC(=S)NNC(=O)c1csc2c1CCCC2 | inactive |  |
| CCCC1=Nc2cc(C(=O)NCCCOC(C)C)ccc2Sc2ccccc21 | active: 11.6 µM |  |
| CCOc1ccc(OCC)c(Nc2cc(C)nc3nc(C)nn23)c1 | inactive |  |
| CCCCCCCCN1C(=O)[C@H](CC(=O)NCCCC)C[C@@]2(C(=O)OC)CC(C)(C)CC=C12 | inconclusive [cytotoxic, single point] |  |
| COC(=O)C1=CN(c2ccc(OC)cc2)C(N)=C(C#N)C1c1ccccc1F (stereo not drawn) | inconclusive [cytotoxic, single point] |  |
| Cc1ccc(NC(=O)COC(=O)c2cc(=O)c3cc(F)ccc3o2)cc1 | inactive |  |
| CC1CCCN(C(C(=O)Nc2ccc(C(C)C)cc2)c2ccc3c(c2)OCO3)C1 (stereo not drawn) | inconclusive [cytotoxic, single point] |  |
| C=CCn1c(SCC(=O)Nc2sccc2C(N)=O)nc2sc(CC)cc2c1=O | inconclusive [cytotoxic, single point] |  |
| CCOC(=O)c1c(NC(=O)c2c(Br)cnn2C)c(C#N)nn1-c1ccccc1 | inconclusive [cytotoxic, single point] |  |
| Cc1[nH]c(=O)c(C#N)c2c1CSC(C)(C)C2 | inactive |  |
| COc1ccc(C=C2CCc3ccccc3C2=O)cc1 | inconclusive [cytotoxic, single point] |  |
| Cc1cc(NO)c(C(C)C)cc1N=O | inactive |  |
| O=C(N/C(=C\c1ccc(Br)cc1)c1nc2ccccc2[nH]1)c1ccco1 | inactive |  |
| COc1ccc(NC(=O)Nc2ccccc2F)cc1 | inconclusive [cytotoxic, single point] |  |
| CC(C)NS(=O)(=O)c1ccc(NC(=O)C(C)Oc2ccc(C(=O)c3ccccc3)cc2)cc1 (stereo not drawn) |  | inconclusive: -34.2% [cytotoxic] |
| CC(C)(C)Nc1nc2nonc2nc1NC(C)(C)C | inconclusive [cytotoxic, single point] |  |
| COc1ccc(C(=O)c2c(C(F)(F)F)oc3c2C(=O)c2ccccc2C3=O)cc1OC | active: 9.2 µM |  |
| O=c1cc(-c2cccc(F)c2)[nH]c2ccccc12 | active: 1.84 µM |  |
| Cc1ccc(-c2c(C(=O)N(C)Cc3ccccc3)oc(=O)c3ccccc23)cc1 | inactive |  |
| Cc1cnc(NC(=O)c2ccc3c(c2)OCCO3)s1 | active: 7.31 µM |  |

| Compound | Potency | activity, negative = less viability |
| --- | --- | --- |
| COc1ccc(C2CC(c3ccccc3Br)=NN2c2ccc(S(N)(=O)=O)cc2)cc1 (stereo not drawn) | inconclusive [cytotoxic, single point] |  |
| COc1ccc(NC(=O)C[C@H]2C(=O)N(Cc3ccccc3)C[C@@H]2Cc2ccccc2)cc1 | inactive |  |
| Cc1cccc(OCCNc2cc(N3CCOCC3)ccc2[N+](=O)[O-])c1 | inconclusive [cytotoxic, single point] |  |
| O=c1oc2c(O)c(O)cc3c(=O)oc4c(O)c(O)cc1c4c23 | inconclusive [rising, full curve] |  |
| O=Nc1nc2ncccn2c1-c1ccccc1 | inactive |  |
| COc1cc2nc(Nc3ccc(C)c(C)c3)nc(N)c2cc1OC | inconclusive [cytotoxic, single point] |  |
| FC(F)(F)C(Oc1nc(Nc2ccc(Cl)cc2)nc(N2CCOCC2)n1)C(F)(F)F | inconclusive [cytotoxic, single point] |  |
| CCOc1ccc(S(=O)(=O)N(CC(=O)N/N=C/c2ccc(-c3ccc([N+](=O)[O-])cc3)o2)c2ccccc2)cc1 | active: 13 µM |  |
| Cc1nn(C)c(C(=O)NCc2ccc(Cl)cc2)c1Cl | inactive |  |
| COc1ccc(C(=O)N2CCN(c3cccc(Cl)c3)CC2)cc1S(=O)(=O)NC1CC1 | inconclusive [cytotoxic, single point] |  |
| CCCc1cc(C(=O)Cc2ccc(F)cc2)c(O)cc1O | active: 23.1 µM |  |
| Cc1cc(F)ccc1-c1cc(C(=O)Nc2ccccc2)[nH]n1 | inactive |  |
| COC(=O)C1=C(N)Oc2cc(C)n(CC3CCCO3)c(=O)c2C1c1ccc(Cl)c(Cl)c1 (stereo not drawn) | inconclusive [cytotoxic, single point] |  |
| COc1ccc(-n2nnnc2S(=O)(=O)Cc2ccc(C(=O)O)cc2)cc1 | active: 14.1 µM |  |
| NS(=O)(=O)c1ccc(NC(=O)COC(=O)/C(=C/c2cccs2)c2cccs2)cc1 | inconclusive [cytotoxic, single point] |  |
| O=C(N/N=C/c1ccc2c(c1)OCO2)c1ccc(COCC(F)(F)C(F)F)cc1 | active: 1.03 µM |  |
| O=C1c2cnc3nc(SCc4ccc(Cl)cc4)nn3c2CC2c3ccccc3CCN12 (stereo not drawn) | inactive |  |
| CC1(C)Cc2c(sc(NC(=O)c3ccc4c(c3)OCCO4)c2C(N)=O)C(C)(C)N1 | inconclusive [cytotoxic, single point] |  |
| O=C(N/N=C/C(Br)=C/c1ccccc1)NC1CCCCC1 | inconclusive [cytotoxic, single point] |  |
| CCOC(=O)C(CC)(CC)C(=O)/C=C/c1ccc(Br)cc1 | inconclusive [cytotoxic, single point] |  |
| CCCN1CCN(C(=O)CCCn2c(C)c3cnn(-c4ccccc4)c(=O)c3c2C)CC1 | inactive |  |
| Cn1c(SCc2cccc(C#N)c2)nc2ccccc2c1=O | inconclusive [cytotoxic, single point] |  |
| Nc1cccc(CCc2nc3cc4ccccc4cc3[nH]2)c1 | inconclusive [cytotoxic, partial curve] |  |
| COc1cc(C2c3cc4c(cc3OC(N3CCCC3)C2C)OCO4)cc(OC)c1O (stereo not drawn) | inconclusive [cytotoxic, single point] |  |
| CN(CCC#N)c1ncnc2scc(-c3ccccc3)c12 | inconclusive [cytotoxic, partial curve] |  |

| Compound | Potency | activity, negative = less viability |
| --- | --- | --- |
| Cc1cccc(N/C=C/c2onc(C)c2[N+](=O)[O-])c1 | inactive |  |
| COCCOC(=O)c1[nH]c2c(c1C)C(=O)CC(c1ccccc1)C2 (stereo not drawn) | active: 1.64 µM |  |
| O=C(COC(=O)/C=C/c1cccs1)NC(c1ccccc1)c1ccccc1 | inconclusive [cytotoxic, single point] |  |
| COc1ccc(-c2cc(C(=O)Nc3ccc(C)c(N)c3)c3ccccc3n2)cc1 | inconclusive [cytotoxic, single point] |  |
| c1ccc(-c2cc(-c3nnc4n3N=C(c3ccc5ccccc5c3)CS4)[nH]n2)cc1 | inconclusive [cytotoxic, single point] |  |
| Cc1cc(C)c(C#N)c(N2CCN(CCOc3ccc(Cl)cc3)CC2)n1 | inconclusive [cytotoxic, single point] |  |
| COc1ccc(NC(=O)CCSCCc2ccccn2)cc1OC | inconclusive [rising, single point] |  |
| O=C(O)c1cc(Br)ccc1NS(=O)(=O)c1cccc2nsnc12 | inactive |  |
| CN(Cc1ccccc1)c1nc2c(c(=O)[nH]c(=O)n2C)n1CCCc1ccccc1 | inconclusive [cytotoxic, single point] |  |
| CC(Sc1nc(N)cc(N)n1)C(=O)Nc1ccc(N2CCOCC2)cc1 (stereo not drawn) | inconclusive [rising, single point] |  |
| COc1ccc(-n2cc(-c3ccccc3)c3c(NCCCN4CCOCC4)ncnc32)cc1 | active: 20.6 µM |  |
| ON=C1c2ccccc2-c2ccc(Br)cc21 | inactive |  |
| Cc1cccc(C)c1Nc1c(-c2ccccn2)nc2ccccn12 | inconclusive [cytotoxic, single point] |  |
| CN(Cc1nccn1C)C(=O)CC1C(=O)NCCN1CC(c1ccccc1)c1ccccc1 (stereo not drawn) | inactive |  |
| Cc1cccc(C)c1NS(=O)(=O)c1ccc(-c2cnc(C3CC3)o2)cc1 | active: 0.082 µM |  |
| O=C(N/N=C/c1ccccc1)c1[nH]c2ccc(Br)cc2c1-c1ccccc1 | active: 0.461 µM |  |
| CC(C)n1cc(CN2CCC(C(=O)Nc3cccc(-c4cscn4)c3)CC2)cn1 | inactive |  |
| O=C(CSc1nnc(COc2ccccc2)n1-c1ccccc1)c1cccs1 | inconclusive [cytotoxic, single point] |  |
| CC1=C/C(=C(\c2cc(C)c(O)c(Br)c2)c2ccccc2S(=O)(=O)O)C=C(Br)C1=O | inconclusive [cytotoxic, full curve] |  |
| COc1ccc(/C=C/C(=O)NC(=S)NCc2ccccc2)cc1OC | inconclusive [cytotoxic, partial curve] |  |
| COc1cccc(C2=NOC(C(=O)N3CCc4ccccc4C3)C2)c1 (stereo not drawn) | inconclusive [cytotoxic, single point] |  |
| Cc1[nH]c2ccccc2c1C(=O)c1cc([C@H](NC(=O)OC(C)(C)C)C(C)C)sc1N | inconclusive [cytotoxic, single point] |  |
| COc1cccc(C2c3cc4c(cc3OC(N3CCOCC3)C2C)OCO4)c1O (stereo not drawn) | inconclusive [cytotoxic, single point] |  |
